# Results as given in PubChem BioAssay AID720709 (National Center for Advancing Translational Sciences (NCATS), 2013).
# The campaign covered roughly 360,000 compounds. About 520 (0.14%) were called active. The inconclusive results got no clear call from the source; some entries with a clear call stand among them for comparison. The call rests on the fitted dose curve; in most records, active means well fitted inhibition curve with a large enough effect; inconclusive means small, poorly fitted or top-dose-only effect; inactive means no such curve, though single readings can be large or run the other way. Potencies of inconclusive entries are left out as doubtful fits.
# Target: Rap guanine nucleotide exchange factor 3 (Homo sapiens) (UniProt O95398)
# Assay: qHTS for Antagonist of cAMP-regulated guanine nucleotide exchange factor 3 (EPAC1): primary screen; further: nearly all actives have a fitted effect of over 50% in size
# Details: EPAC1 GEF assay, Rap1b-BODIPY-GDP exchange fluorescence; series mostly up to 115 µM
# Potency means the concentration at half of the fitted maximal effect; tags describe the fitted curve by direction and shape.
# Sequence of UniProt O95398 (O95398 whole entry, looked up): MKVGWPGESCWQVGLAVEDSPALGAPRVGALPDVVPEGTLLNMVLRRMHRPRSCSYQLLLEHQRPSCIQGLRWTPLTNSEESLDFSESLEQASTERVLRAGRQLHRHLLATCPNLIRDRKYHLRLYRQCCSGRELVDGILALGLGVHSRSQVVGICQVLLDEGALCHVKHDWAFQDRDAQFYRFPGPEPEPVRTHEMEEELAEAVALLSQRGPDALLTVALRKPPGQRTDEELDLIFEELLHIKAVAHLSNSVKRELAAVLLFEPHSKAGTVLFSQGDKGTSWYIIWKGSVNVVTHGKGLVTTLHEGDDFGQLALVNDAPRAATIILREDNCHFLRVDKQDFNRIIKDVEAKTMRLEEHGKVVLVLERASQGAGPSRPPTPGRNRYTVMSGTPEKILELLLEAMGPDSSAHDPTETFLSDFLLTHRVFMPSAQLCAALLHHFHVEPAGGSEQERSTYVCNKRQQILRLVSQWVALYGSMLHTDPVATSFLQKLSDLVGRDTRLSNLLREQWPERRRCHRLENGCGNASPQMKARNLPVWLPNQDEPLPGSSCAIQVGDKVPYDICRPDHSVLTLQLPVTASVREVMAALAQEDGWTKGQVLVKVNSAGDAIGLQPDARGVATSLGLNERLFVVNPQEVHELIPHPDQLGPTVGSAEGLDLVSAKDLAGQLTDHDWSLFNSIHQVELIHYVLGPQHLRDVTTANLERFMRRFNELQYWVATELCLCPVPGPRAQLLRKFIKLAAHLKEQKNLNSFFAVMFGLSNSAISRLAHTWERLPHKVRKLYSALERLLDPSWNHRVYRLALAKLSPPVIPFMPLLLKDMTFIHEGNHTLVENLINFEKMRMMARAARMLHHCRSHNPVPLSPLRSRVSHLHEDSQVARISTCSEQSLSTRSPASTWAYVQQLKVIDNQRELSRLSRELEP
row,Structure (SMILES),Potency
1,O=C1NC(=S)NC(=O)C1=Cc1ccc(OCc2ccccc2)cc1,inactive
2,CN1CCN(c2ccc([N+](=O)[O-])c(NCC3CCCO3)c2)CC1 (configuration not stated),inactive
3,c1cc(CNCCc2ccc3c(c2)OCO3)ccn1,"inconclusive [inhibitor, single point]"
4,CC[n+]1c(/C=C/C=C/c2ccc(N(C)C)cc2)sc2ccccc21,"inconclusive [inhibitor, partial curve]"
5,BrCC(Br)C1CCC(Br)C(Br)C1 (configuration not stated),inactive
6,COC(=O)c1c2[n+](cc3cc(OC)c(OC)cc13)CCc1cc(OC)c(OC)cc1-2,"inconclusive [inhibitor, full curve, poor fit]"
7,CC1CCN(CC(=O)c2ccccc2Cl)CC1,"inconclusive [inhibitor, full curve, poor fit]"
8,O=C1/C(=C/c2ccccc2)C[C@@]2(O)[C@H]3Cc4ccc(O)c5c4[C@@]2(CCN3CC2CC2)C1O5 (some centres not stated),"inconclusive [inhibitor, partial curve]"
9,COc1cccc(N2C(=O)NC(=O)/C(=C/c3ccc([N+](=O)[O-])s3)C2=O)c1,"inconclusive [inhibitor, single point]"
10,C=C1C(=O)O[C@@H]2C[C@@H](C)[C@H]3C=CC(=O)[C@]3(O)C[C@@H]12,inactive
11,O=C(Nc1ccc(Oc2ccc(Cl)cc2)c(Cl)c1)c1cc(I)cc(I)c1O,active: 39.8 µM
12,Cc1ccc2nc(SCC(=O)N/N=C/c3ccco3)cc(C)c2c1,"inconclusive [inhibitor, partial curve]"
13,O=[N+]([O-])c1ccc(N2CCOCC2)c2c1no[n+]2[O-],"inconclusive [inhibitor, full curve]"
14,CN1CCCN(C(=O)COc2ccc(F)cc2Cl)CC1,inactive
15,CNc1ccc2oc(C[C@H]3O[C@@]4(CC[C@H]3C)O[C@H]([C@H](C)C(=O)c3ccc[nH]3)[C@H](C)C[C@H]4C)nc2c1C(=O)O,"inconclusive [inhibitor, partial curve]"
16,Cc1ccc(-c2[nH]c(=S)[nH]c(=O)c2C#N)cc1,"inconclusive [inhibitor, full curve, poor fit]"
17,CCOC(=O)c1c(-n2c(C)cc(/C=C3\C(=O)NC(=O)N(C)C3=O)c2C)sc2c1CCCC2,inactive
18,C[C@]12C=CC(=O)C=C1CC[C@@H]1[C@@H]2CC[C@]2(C)C(=O)CC[C@@H]12,inactive
19,COc1cc(/C=N/NC(=O)CN2CCCCC2)ccc1OCc1ccccc1,"inconclusive [inhibitor, partial curve, poor fit]"
20,Cc1ccccc1N(CC(=O)NC1CCCC1)C(=O)c1csnn1,"inconclusive [inhibitor, partial curve, poor fit]"
21,COCCCn1c(N)c(C(=O)OC(C)COC)c2nc3ccccc3nc21 (configuration not stated),inactive

row,Structure (SMILES),Potency
1,COc1ccc(-c2nn(CCC#N)cc2C(=O)Nc2ccccc2Br)cc1[N+](=O)[O-],"inconclusive [inhibitor, full curve, poor fit]"
2,CSc1ncc(/C=C2/C(=O)NC(=O)N(c3ccc(C(C)C)cc3)C2=O)cn1,inactive
3,Cc1ccc(N2C(=O)NC(=O)/C(=C\c3cc(C)n(-c4cc(C(=O)O)cc(C(=O)O)c4)c3C)C2=O)cc1,inactive
4,COc1ccc(/C=C/C2=CCN(C)CC2)cc1,"inconclusive [inhibitor, single point]"
5,C[C@@H](N)Cc1cnc[nH]1,inactive
6,Nc1c2c(nc3sc4c(c13)CCCC4)CCCC2,"inconclusive [inhibitor, single point]"
7,CCC(=Nc1ccc2c(c1)CCC2)c1c(O)n(-c2ccc(OC)cc2)c(=O)[nH]c1=O,inactive
8,NC(=O)c1cn(C2OC(CO)C(O)C2O)c2ncnc(N)c12 (configuration not stated),inactive
9,Cc1ccccc1-n1c(O)c(/C=C2/C(c3ccccc3)=Nc3ccccc32)c(=O)[nH]c1=O,"inconclusive [inhibitor, single point]"
10,O=c1c2ccccc2nc(/C=C\c2ccccc2[N+](=O)[O-])n1-c1ccccc1O,"inconclusive [inhibitor, full curve]"
11,CC(C)CCNC(=O)c1cc(C(=O)c2cc(F)ccc2O)cn(CCC(C)C)c1=O,"inconclusive [inhibitor, full curve, poor fit]"
12,Cc1cc(C)cc(N2C(=O)NC(=O)/C(=C\C=C\c3ccco3)C2=O)c1,"inconclusive [inhibitor, full curve, poor fit]"
13,COC(=O)c1ccc(COC(=O)c2nn(C)c(=O)c3ccccc23)cc1,"inconclusive [inhibitor, full curve, poor fit]"
14,O=C1NC(=O)N(c2ccccc2)C(=O)/C1=C\c1ccc([N+](=O)[O-])s1,"inconclusive [inhibitor, full curve, poor fit]"
15,O=C(O)c1cccc2c1NC(C(=O)O)C1CC(Sc3ccccc3[N+](=O)[O-])C(Cl)C21 (configuration not stated),"inconclusive [inhibitor, partial curve]"
16,COC(=O)C1=C(c2ccc(OC(F)(F)F)cc2)C[C@@H]2CC[C@H]1N2C(=O)NCc1cc(C)oc1C(F)(F)F,"inconclusive [inhibitor, full curve, poor fit]"
17,O=S(=O)(c1ccc(Cl)cc1)N1CCC(n2cnc3cc(C(F)(F)F)ccc32)CC1,"inconclusive [inhibitor, full curve, poor fit]"
18,COc1ccc(-c2[nH]ncc2CNC(C)Cc2cccc(C)n2)cc1F (configuration not stated),"inconclusive [inhibitor, partial curve]"
19,COC(=O)C1=C(c2ccc(OC(F)(F)F)cc2)C[C@@H]2CC[C@H]1N2C(=O)NCCCOC(C)C,inactive
20,COc1ccc(N2C(=O)NC(=O)/C(=C/c3cccc(OC(=O)c4cccs4)c3)C2=O)cc1Cl,inactive
21,O=C(Cc1cc(=O)oc2cc(O)ccc12)NN=Cc1ccc(N(CCCl)CCCl)cc1,"inconclusive [inhibitor, full curve, poor fit]"
